Measured values from PubChem BioAssay AID360 (National Center for Advancing Translational Sciences (NCATS), 2006).
Screen size: about 48,000 compounds; about 550 (1.1%) were called active. Not shown: some 4% with an inconclusive outcome. Cut-off read from the data, not from the text of the source: active = potency below about 15 µM; inconclusive = mostly about 16 µM to 33 µM; inactive = weaker than that. Some of the results follow.

molecular target: Lysosomal acid glucosylceramidase (Homo sapiens) (UniProt P04062); assay: Glucocerebrosidase; details: purified enzyme, resorufin glucoside fluorescence (screen aimed at inhibitors), 20 min;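 note: the screen sought inhibitors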
Chain of UniProt P04062 (P04062 whole entry, looked up): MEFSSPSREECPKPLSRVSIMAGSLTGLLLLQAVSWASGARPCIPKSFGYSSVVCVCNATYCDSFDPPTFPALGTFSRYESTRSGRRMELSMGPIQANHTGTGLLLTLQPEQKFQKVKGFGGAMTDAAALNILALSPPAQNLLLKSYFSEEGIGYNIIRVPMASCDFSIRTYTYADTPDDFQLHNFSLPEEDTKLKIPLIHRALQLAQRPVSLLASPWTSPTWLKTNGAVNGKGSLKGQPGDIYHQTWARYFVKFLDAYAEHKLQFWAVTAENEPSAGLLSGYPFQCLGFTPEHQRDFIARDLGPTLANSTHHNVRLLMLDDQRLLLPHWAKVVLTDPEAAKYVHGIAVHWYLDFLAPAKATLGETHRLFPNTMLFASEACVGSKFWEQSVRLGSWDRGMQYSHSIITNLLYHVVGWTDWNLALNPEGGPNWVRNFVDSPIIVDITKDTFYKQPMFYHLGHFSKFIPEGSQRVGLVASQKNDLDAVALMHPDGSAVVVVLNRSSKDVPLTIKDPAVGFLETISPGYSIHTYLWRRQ
Procedure, shortened: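 Normal human glucocerebrosidase (0.2 nM final) was assayed with resorufin β-D-glucopyranoside (30 uM final) in 50mM citric acid/KH2PO4, 10mM sodium taurocholate, 0.01% tween-20, pH 5.9. Compounds were titrated; fluorescence (Ex 548, Em 600) read after 20 min at RT.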
Potency is the fitted concentration of half-maximal effect.

Potency, active:
NC1=NC2(CCN(Cc3ccccc3)CC2)n2c(nc3ccccc32)N1 3.69 µM

Potency, inactive:
OC1(c2cccc(C(F)(F)F)c2)CCNCC1 > 76.9 µM
COc1cccc(-n2c(C)nc3c(cnn3-c3ccc(Cl)cc3)c2=O)c1 > 76.9 µM
Cc1ccc(N=C2SCCCN2C(=O)c2ccco2)cc1Cl > 76.9 µM
Cc1nc2cc(C(=O)O)ccc2n1-c1ccc(F)cc1F > 76.9 µM
COc1cccc(-c2nnc(NC(=O)c3ccc(S(=O)(=O)N4CCOCC4)cc3)o2)c1 > 76.9 µM
COc1cc(C2/C(=C(/O)c3ccc(F)cc3)C(=O)C(=O)N2CCCC(=O)O)ccc1O (stereo not drawn) > 76.9 µM
CN(C)c1ccc(CN(C(=O)COc2ccc(F)cc2)C2CCS(=O)(=O)C2)cc1 (stereo not drawn) > 76.9 µM
CCCC(=O)Nc1ccc(NC(=O)Cc2ccccc2)cn1 > 76.9 µM
CCOc1c(CNCCNC(=O)c2nonc2N)cccc1OC > 76.9 µM
Cc1nn(-c2ccccc2)c2sc(C(=O)NC3CCCCC3)cc12 > 76.9 µM
Cc1nc(N2C(=O)C(=O)/C(=C(/O)c3ccccc3)C2c2ccco2)sc1C (stereo not drawn) > 76.9 µM
Nc1nnc(SCC(=O)NCc2ccc3c(c2)OCO3)s1 > 76.9 µM
Cc1ccc(N2C(=O)c3ccc(N)cc3C2=O)cc1C > 76.9 µM
COc1cc2cc(CN(CCCO)S(=O)(=O)c3ccccc3Cl)c(=O)[nH]c2cc1OC > 76.9 µM
CCCCn1c(N)c(N(CCC(C)C)C(=O)CSc2nnc(C)s2)c(=O)[nH]c1=O > 76.9 µM
O=C(CSc1nnc(-c2ccccc2F)n1C1CCCCC1)N1CCCC1 > 76.9 µM
Cc1ccc(-c2[nH]nc3c2C(c2ccoc2)C(C#N)=C(N)O3)cc1C (stereo not drawn) > 76.9 µM
O=C(O)CSc1nnc(-c2cccs2)n1-c1ccc(Cl)cc1 > 76.9 µM
Cc1cc(C)c2cc(CN(Cc3ccco3)C(=O)NCc3ccccc3)c(=O)[nH]c2c1 > 76.9 µM
CC1(C(=O)O)CCC(C(=O)Nc2ccccc2)C1(C)C (stereo not drawn) > 76.9 µM
COC(=O)c1nc(NC(C)=O)n[nH]1 > 76.9 µM
CCOC(=O)C1=C(C)NC(=O)NC1c1ccc(OC(C)C(=O)O)c(OC)c1 (stereo not drawn) > 76.9 µM
O=C(Nc1cc(Cl)ccc1O)c1cc2n(n1)C(C(F)(F)F)CC(c1ccc3c(c1)OCO3)N2 (stereo not drawn) > 76.9 µM
O=c1cc(-c2ccccc2)nc2nc(SCc3ccccc3)[nH]n12 > 76.9 µM
COc1ccc(OCCSc2nnc(-c3ccoc3C)n2C)cc1 > 76.9 µM
CNC(=O)Nc1ccccc1NC(=O)NC > 76.9 µM
Cc1ccc(-c2nc3s/c(=C\c4ccco4)c(=O)n3n2)cc1 > 76.9 µM
Cc1nnc(SCc2nnc(-c3ccccc3Br)o2)n1-c1ccccc1 > 76.9 µM
Cn1ccnc1-c1nc2ccccc2[nH]c1=O > 76.9 µM
c1ccc(-c2nn3nnnc3c3ccccc23)cc1 > 76.9 µM
CN1CCN(c2ccccc2NS(=O)(=O)c2ccc3c(c2)CCN3C(=O)C2CCC2)CC1
CCc1ccc(C(=O)N2CCN(c3ccc(F)cc3)CC2)s1 > 76.9 µM
Cc1nc(C)c(C(=O)Nc2cccc(Cl)c2)o1 > 76.9 µM
COc1ccc(C(=O)Nc2ccccc2)cc1S(=O)(=O)Nc1cc(C)on1 > 76.9 µM
CCC1Oc2ccccc2N(CC(=O)NCCN2C(C)CCCC2C)C1=O (stereo not drawn) > 76.9 µM
CN(CC(=O)NC1CCCCC1)S(=O)(=O)c1ccc(Br)s1 > 76.9 µM
CC(OC(=O)C(NC(=O)c1ccco1)C(C)C)C(=O)Nc1ncc(Cl)cc1Cl (stereo not drawn) > 76.9 µM
Cc1cc(NC(=O)c2cc(Cl)ccc2Cl)no1 > 76.9 µM
CCOC(=O)c1sc(=NC(=O)c2ccc(S(=O)(=O)N3CC(C)OC(C)C3)cc2)n(C)c1C (stereo not drawn) > 76.9 µM
CCOC(=O)N1CCN(C(=O)C2CCN(S(=O)(=O)N3CCCC3)CC2)CC1 > 76.9 µM
O=C(c1cc(=O)c2ccccc2o1)N1CCCc2ccccc21 > 76.9 µM
COc1ccc(C)cc1NCc1cccc(OC)c1OC > 76.9 µM
Cc1oc(-c2nc3ccccc3n2C)cc1C(=O)c1ccccc1 > 76.9 µM
O=C(O)c1sccc1S(=O)(=O)c1ccccc1 > 76.9 µM
COc1ccc(NC(=O)CSc2nccn2-c2cccc(OC)c2)cc1 > 76.9 µM
O=C(NCc1ccco1)Nc1ccccc1Cl > 76.9 µM
Oc1ccccc1Nc1ncnc2c1oc1ccccc12 > 76.9 µM
O=C1[C@@H]2[C@H](Cc3ccc(O)cc3)N[C@]3(C(=O)Nc4ccccc43)[C@@H]2C(=O)N1c1ccc(F)cc1 > 76.9 µM
CCOC(=O)C1CCN(C(=O)COC(=O)COc2ccccc2OC)CC1 > 76.9 µM
CSc1ccc(C2Nc3ccccc3-c3cc(C)nn32)cc1 (stereo not drawn) > 76.9 µM
Cc1onc(-c2ccccc2Cl)c1C(=O)NCc1cccs1 > 76.9 µM
COc1ccccc1CNC(=O)COC(=O)c1cnccn1 > 76.9 µM
Cc1cc(C(=O)COc2nncc3ccccc23)c(C)n1C > 76.9 µM
Cc1cc(C)c(NC(=O)C2CCCN2CCO)c(C)c1 (stereo not drawn) > 76.9 µM
O=C(NCc1ccc(F)cc1)C1CCC(=O)N1C1CCCCC1 (stereo not drawn) > 76.9 µM
C=CCc1c(C)nc2c(C(=O)O)cnn2c1C > 76.9 µM
CC(C)OCCCNC(=O)CNC(=O)c1cccs1 > 76.9 µM
CN(C)CCNc1nc2c(c(=O)[nH]c(=O)n2C)n1CC(O)COc1ccc(Cl)cc1Cl (stereo not drawn) > 76.9 µM
CC(NS(C)(=O)=O)C(c1cccs1)N1CCN(C)CC1 (stereo not drawn) > 76.9 µM
CC(C)Oc1ccc(N2CC(C(=O)Nc3ccccc3F)CC2=O)cc1 (stereo not drawn) > 76.9 µM
Cc1nc(N2CCN(C)CC2)[nH]c(=O)c1Cc1cccc2ccccc12
COc1c(C)cc(Br)cc1C(=O)O > 76.9 µM
CCn1c2ccccc2c2nnc(SCc3cc(=O)n4ccsc4n3)nc21 > 76.9 µM
COc1ccc(CCNC(=O)CSc2nc3c(c(=O)n(C)c(=O)n3C)n2C(C)C)cc1OC > 76.9 µM
Cc1ccc2c(c1)N(CCCC(=O)NCCC1=CCCCC1)C(=O)CO2 > 76.9 µM
CS(=O)(=O)NC1CCN(Cc2ccccc2)CC1 > 76.9 µM
CC1=C(Sc2ccccn2)C(=O)NC(C)(C)C1 > 76.9 µM
CC(C)NC(=O)CN(C)S(=O)(=O)c1ccc(F)cc1 > 76.9 µM
COC(=O)c1ccccc1OCC(=O)NC1CCCCC1 > 76.9 µM
O=S(=O)(c1cccc2nsnc12)N1CCc2ccccc2C1 > 76.9 µM
Cc1ccc(NC(=O)CN(C)S(=O)(=O)c2cccc3nsnc23)cc1C > 76.9 µM
COc1ccc(-c2nnc(SCCc3ccccc3)n2N)cc1 > 76.9 µM
Cc1cc(Nc2ncc(Cl)cc2Cl)n[nH]1 > 76.9 µM
COCCCNC(=O)Cn1cc(C(=O)C2CC2)c2ccccc21 > 76.9 µM
O=C(Nc1cccc2c1CCCC2)C1CCCN(S(=O)(=O)c2cccc3nonc23)C1 (stereo not drawn) > 76.9 µM
O=C(CN1CCN(c2ccccn2)CC1)N1c2ccccc2CCc2ccccc21 > 76.9 µM
Cc1ccc(-c2noc(C3CCN(S(C)(=O)=O)CC3)n2)o1 > 76.9 µM
Nc1nc(-c2ccco2)c(-c2ccco2)s1 > 76.9 µM
COc1ccc(-c2cc(C(=O)Nc3cccc(C(C)=O)c3)no2)cc1 > 76.9 µM
Cc1cc(C)n(CCc2nc(-c3cc4ccccc4o3)cs2)n1 > 76.9 µM
O=C1c2ccccc2-c2ncnc3cccc1c23 > 76.9 µM
CCOc1ccccc1OCCCC(=O)N1CCN(S(=O)(=O)c2ccc(C)cc2)CC1 > 76.9 µM
Cc1cc(NC(=O)Cn2cnc3c2c(=O)n(C)c(=O)n3C)n(-c2ccccc2)n1 > 76.9 µM
Cc1cc(NC(=O)Cn2nc(C(F)(F)F)c3c2CCCC3)no1 > 76.9 µM
O=S(=O)(NC1=NCCC1)c1cccs1 > 76.9 µM
CCOC(=O)C(C)n1cnc2c(nnn2Cc2ccc(C)cc2)c1=O (stereo not drawn) > 76.9 µM
N#C/C(=C(/O)COC(=O)CCC1CCCCC1)c1nc2ccccc2[nH]1 > 76.9 µM
Cc1cc(=O)[nH]c(SCC(=O)NCc2ccco2)n1 > 76.9 µM
Cc1nn(-c2ccccc2)c2c1C(c1ccco1)C(C#N)=C(N)O2 (stereo not drawn) > 76.9 µM
CCOC(=O)N1CCN(C(=O)CN2C(=O)COc3ccc(C(C)(C)C)cc32)CC1 > 76.9 µM
CCOC(=O)Cn1c2c(c(=N)c3c1CCC3)CCC2 > 76.9 µM
CC(=O)N1CCN(C(=O)CNc2cc(C(F)(F)F)ccc2OCC(F)(F)F)CC1 > 76.9 µM
